# Laboratory results as given in the supplement of paper PMC8007513.
# Structures can show the parent of a compound that is named as a salt. ± gives the standard error. Screen size: about 1,300 compounds; about 130 (10%) showed an effect of 50% or more. The entries are a selection whose mix differs from that of the whole data set.
# Tested on: Trichoderma virens ATCC 9645
# Experiment: growth yield (OD600) with compound + IPBC relative to untreated control; higher = less growth inhibition
# Conditions: compound concentration: 100 uM, IPBC concentration: 200 ng/ml
# Summary of the method: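 Plates were read for OD600 at 40 h and 72 h after Trichoderma virens ATCC 9645 spores (15,000 spores ml^−1 in potato dextrose broth) were grown at 30 °C with library compounds at 100 μM final, with or without a biocide at 200 ng ml^−1. Growth is stated relative to the control with neither agent, as the mean of duplicate screens.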
Structure (SMILES),growth yield (40 h),growth yield (72 h)
O=P(O)(O)C(O)(Cc1cccnc1)P(=O)(O)O [Risedronic acid monohydrate] + CCCCNC(=O)OCC#CI [3-iodo-2-propynyl butylcarbamate (IPBC)],88.8 ± 2.7%,91.66 ± 0.42%
CCN(CC)C(=O)N1CCN(C)CC1 [Diethylcarbamazine citrate] + CCCCNC(=O)OCC#CI [3-iodo-2-propynyl butylcarbamate (IPBC)],83.4 ± 2.4%,94.1 ± 1.4%
CCN(CCCc1ccccc1)CCCc1ccccc1 [Alverine citrate salt] + CCCCNC(=O)OCC#CI [3-iodo-2-propynyl butylcarbamate (IPBC)],78.3 ± 0.79%,92.4 ± 0.94%
CC1=C(C(=O)O)N2C(=O)[C@@H](NC(=O)[C@H](N)c3ccc(O)cc3)[C@H]2SC1 [Cefadroxil] + CCCCNC(=O)OCC#CI [3-iodo-2-propynyl butylcarbamate (IPBC)],81.5 ± 1.8%,88.5 ± 1.5%
C=CCN1CCCC1CNC(=O)c1cc2nn[nH]c2cc1OC (stereo not drawn) [Alizapride hydrochloride] + CCCCNC(=O)OCC#CI [3-iodo-2-propynyl butylcarbamate (IPBC)],111.5 ± 0.32%,107%
CC(=O)O[C@H]1CC[C@@]2(C)C(=CC[C@@H]3[C@@H]2CC[C@]2(C)C(=O)CC[C@@H]32)C1 [Dehydroisoandosterone 3-acetate] + CCCCNC(=O)OCC#CI [3-iodo-2-propynyl butylcarbamate (IPBC)],70.5 ± 2.5%,85.7 ± 3%
C=C(NC(=O)C(=C)NC(=O)c1csc(C2=N[C@@H]3c4csc(n4)[C@H]4NC(=O)c5csc(n5)[C@H]([C@](C)(O)[C@@H](C)O)NC(=O)[C@H]5CSC(=N5)/C(=C/C)NC(=O)[C@H]([C@@H](C)O)NC(=O)c5csc(n5)[C@]3(CC2)NC(=O)[C@H](C)NC(=O)C(=C)NC(=O)[C@H](C)NC(=O)[C@H]([C@@H](C)CC)N[C@@H]2C=Cc3c([C@H](C)O)cc(nc3[C@H]2O)C(=O)O[C@@H]4C)n1)C(N)=O [Thiostrepton] + CCCCNC(=O)OCC#CI [3-iodo-2-propynyl butylcarbamate (IPBC)],101 ± 2.5%,100 ± 1.6%
Cn1c(=O)c2c(ncn2CC(O)CO)n(C)c1=O (stereo not drawn) [Diprophylline] + CCCCNC(=O)OCC#CI [3-iodo-2-propynyl butylcarbamate (IPBC)],84.82 ± 0.64%,88.3 ± 1.7%
CN1C[C@H](CNC(=O)OCc2ccccc2)C[C@@H]2c3cccc4c3c(cn4C)C[C@H]21 [Metergoline] + CCCCNC(=O)OCC#CI [3-iodo-2-propynyl butylcarbamate (IPBC)],45.4 ± 15%,112 ± 9.5%
CNC1(C)C2CCC(C2)C1(C)C (stereo not drawn) [Mecamylamine hydrochloride] + CCCCNC(=O)OCC#CI [3-iodo-2-propynyl butylcarbamate (IPBC)],102.1 ± 0.79%,99.11 ± 0.1%
CCC(C)(C)c1ccc(CC(C)CN2C[C@@H](C)O[C@@H](C)C2)cc1 (stereo partly drawn) [Amorolfine hydrochloride] + CCCCNC(=O)OCC#CI [3-iodo-2-propynyl butylcarbamate (IPBC)],3.97 ± 0.16%,2.94 ± 0.21%
Oc1ccc2c3c1O[C@H]1[C@@H](O)CC[C@@]4(O)[C@@H](C2)N(CC2CCC2)CC[C@]314 [Nalbuphine hydrochloride] + CCCCNC(=O)OCC#CI [3-iodo-2-propynyl butylcarbamate (IPBC)],88 ± 5.1%,93.2 ± 3.5%
Nc1ccc(S(N)(=O)=O)cc1 [Sulfanilamide] + CCCCNC(=O)OCC#CI [3-iodo-2-propynyl butylcarbamate (IPBC)],104 ± 9.4%,104 ± 8.8%
CC(CCc1ccc(O)cc1)NCCc1ccc(O)c(O)c1 (stereo not drawn) [Dobutamine hydrochloride] + CCCCNC(=O)OCC#CI [3-iodo-2-propynyl butylcarbamate (IPBC)],101 ± 4.9%,98.4 ± 4.4%
CNCC[C@@H](Oc1cccc2ccccc12)c1cccs1 [(R)-Duloxetine hydrochloride] + CCCCNC(=O)OCC#CI [3-iodo-2-propynyl butylcarbamate (IPBC)],61.6 ± 3.8%,90.3 ± 0.1%
O=C(NCC1CCCCN1)c1cc(OCC(F)(F)F)ccc1OCC(F)(F)F (stereo not drawn) [Flecainide acetate] + CCCCNC(=O)OCC#CI [3-iodo-2-propynyl butylcarbamate (IPBC)],94.7 ± 4.8%,99.3 ± 2%
CC(C)[C@H]1CC[C@H](C(=O)N[C@H](Cc2ccccc2)C(=O)O)CC1 [Nateglinide] + CCCCNC(=O)OCC#CI [3-iodo-2-propynyl butylcarbamate (IPBC)],83.5 ± 2.5%,90.7 ± 1.1%
COc1ccccc1OCCNCC(O)COc1cccc2[nH]c3ccccc3c12 (stereo not drawn) [Carvedilol] + CCCCNC(=O)OCC#CI [3-iodo-2-propynyl butylcarbamate (IPBC)],87.05 ± 0.64%,123 ± 5.9%
CC(C)c1nc(CN(C)C(=O)N[C@H](C(=O)N[C@@H](Cc2ccccc2)C[C@H](O)[C@H](Cc2ccccc2)NC(=O)OCc2cncs2)C(C)C)cs1 [Ritonavir] + CCCCNC(=O)OCC#CI [3-iodo-2-propynyl butylcarbamate (IPBC)],119 ± 1.6%,119 ± 1.5%

Structure (SMILES),growth yield (40 h),growth yield (72 h)
COc1cc(N)c(Cl)cc1C(=O)NC1CCN(Cc2ccccc2)CC1 [Clebopride maleate] + CCCCNC(=O)OCC#CI [3-iodo-2-propynyl butylcarbamate (IPBC)],82.8 ± 6.2%,93.3 ± 6.3%
CCN1CCCC1CNC(=O)c1cc(S(=O)(=O)CC)c(N)cc1OC (stereo not drawn) [Amisulpride] + CCCCNC(=O)OCC#CI [3-iodo-2-propynyl butylcarbamate (IPBC)],78.8 ± 2.2%,84.3 ± 1.5%
Nc1nc(N)nc(-c2cc(Cl)ccc2Cl)n1 [Irsogladine maleate] + CCCCNC(=O)OCC#CI [3-iodo-2-propynyl butylcarbamate (IPBC)],88.8 ± 2.1%,89.6 ± 1.1%
CC(CN1c2ccccc2Sc2ccccc21)N(C)C (stereo not drawn) [Promethazine hydrochloride] + CCCCNC(=O)OCC#CI [3-iodo-2-propynyl butylcarbamate (IPBC)],78.2 ± 1.9%,94.3 ± 4.1%
NS(=O)(=O)c1cc2c(cc1C(F)(F)F)NC(Cc1ccccc1)NS2(=O)=O (stereo not drawn) [Bendroflumethiazide] + CCCCNC(=O)OCC#CI [3-iodo-2-propynyl butylcarbamate (IPBC)],99.1 ± 11%,101 ± 11%
O=C(c1ccc(OCCN2CCCCC2)cc1)c1c(-c2ccc(O)cc2)sc2cc(O)ccc12 [Raloxifene hydrochloride] + CCCCNC(=O)OCC#CI [3-iodo-2-propynyl butylcarbamate (IPBC)],64.2%,116 ± 18%
COc1cc2c(c(OC)c1OC)-c1ccc(OC)c(=O)cc1[C@@H](NC(C)=O)CC2 [Colchicine] + CCCCNC(=O)OCC#CI [3-iodo-2-propynyl butylcarbamate (IPBC)],88.5 ± 6.8%,92.9 ± 1.7%
CCn1cc(C(=O)O)c(=O)c2cc(F)c(N3CCNCC3)cc21 [Norfloxacin] + CCCCNC(=O)OCC#CI [3-iodo-2-propynyl butylcarbamate (IPBC)],96.3 ± 3.5%,96.7 ± 1.7%
COC1=CC(=O)C[C@@H](C)[C@]12Oc1c(Cl)c(OC)cc(OC)c1C2=O [Griseofulvin] + CCCCNC(=O)OCC#CI [3-iodo-2-propynyl butylcarbamate (IPBC)],48.8 ± 3.6%,–
COc1cc(N)c(Cl)cc1C(=O)NC1CCN(CCCOc2ccc(F)cc2)CC1OC (stereo not drawn) [Cisapride] + CCCCNC(=O)OCC#CI [3-iodo-2-propynyl butylcarbamate (IPBC)],76.24 ± 0.32%,92.7 ± 1.7%
CN(C)CCC(c1ccc(Cl)cc1)c1ccccn1 (stereo not drawn) [Chlorpheniramine maleate] + CCCCNC(=O)OCC#CI [3-iodo-2-propynyl butylcarbamate (IPBC)],80.4 ± 1.6%,90.7 ± 3.5%
c1ccc2c(c1)OCC(C1=NCCN1)O2 (stereo not drawn) [Idazoxan hydrochloride] + CCCCNC(=O)OCC#CI [3-iodo-2-propynyl butylcarbamate (IPBC)],88.633 ± 1e-14%,94.8 ± 2.5%
CCCC(CCC)C(=O)O [Valproic acid] + CCCCNC(=O)OCC#CI [3-iodo-2-propynyl butylcarbamate (IPBC)],84.3 ± 3.6%,93.7 ± 1.6%
CN(C)CCCC1(c2ccc(F)cc2)OCc2cc(C#N)ccc21 (stereo not drawn) [Citalopram Hydrobromide] + CCCCNC(=O)OCC#CI [3-iodo-2-propynyl butylcarbamate (IPBC)],84.2 ± 7.6%,92.3 ± 5.9%
CCCCCC[C@H]1C(=O)O[C@H](C)[C@H](NC(=O)c2cccc(NC=O)c2O)C(=O)O[C@@H](C)[C@@H]1OC(=O)CC(C)C [Antimycin A] + CCCCNC(=O)OCC#CI [3-iodo-2-propynyl butylcarbamate (IPBC)],17.6 ± 1.1%,42.9 ± 2.4%
Cc1onc(-c2ccccc2)c1C(=O)N[C@@H]1C(=O)N2[C@@H]1SC(C)(C)[C@@H]2C(=O)O [Oxacillin sodium] + CCCCNC(=O)OCC#CI [3-iodo-2-propynyl butylcarbamate (IPBC)],109 ± 1.6%,107 ± 2.1%
Cn1c(=O)c2c(ncn2C)n(C)c1=O [Caffeine] + CCCCNC(=O)OCC#CI [3-iodo-2-propynyl butylcarbamate (IPBC)],93.1 ± 10%,92.9 ± 5.7%
CC[N+]1(C)CCCC(OC(=O)C(O)(c2ccccc2)c2ccccc2)C1 (stereo not drawn) [Pipenzolate bromide] + CCCCNC(=O)OCC#CI [3-iodo-2-propynyl butylcarbamate (IPBC)],98.8 ± 7.6%,94.9 ± 5.3%
